Source: the supplement of paper PMC9446081
In all, about 39,000 compounds went through this assay and about 220 (0.56%) showed activity. The list shows a part of the results.

Tested on: Escherichia coli K-12 BW25113
Test: relative growth (OD600 normalised to plate interquartile mean) (fraction); higher = less growth inhibition, active = 0.2 or less
Conditions: 50 µM; LB; incubation time: overnight (16-24 h)
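Note: static incubation at 37 °C against the wild-type strain, values averaged over two biological replicates.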

Question: Which relative growth does the source give for C[C@H](CO)N1C[C@H](C)[C@@H](CN(C)Cc2ccc(C(=O)O)cc2)OCCCC[C@H](C)Oc2ccc(NS(=O)(=O)c3ccc(F)cc3)cc2C1=O here?
Answer: inactive: 0.967

Question: CNC(=O)C[C@@H]1CC[C@H]2[C@@H](COc3ccc(NC(=O)c4ccc(C(F)(F)F)cc4)cc3C(=O)N2C)O1 was tested. Which relative growth did it give?
Answer: inactive: 1.03

Question: How did the relative growth turn out when C[C@@H]1CCCCO[C@H](CN(C)Cc2ccccc2)[C@@H](C)CN([C@@H](C)CO)C(=O)c2cc(NC(=O)Nc3ccc(F)cc3)ccc2O1 was run?
Answer: inactive: 1.03

Question: Which relative growth does the source give for C[C@H]1CN([C@@H](C)CO)C(=O)c2cc(-c3cncnc3)cnc2O[C@@H]1CN(C)C(=O)CN1CCOCC1 here?
Answer: inactive: 0.985

Question: How did the relative growth turn out when CCCCOc1ccc(C(=O)CCN2CCCCC2)cc1.Cl was run?
Answer: inactive: 0.881

Question: With COc1ccc(NC(=O)N(C)C[C@@H]2OCCCC[C@H](C)Oc3ccc(NC(=O)NC4CCCCC4)cc3C(=O)N([C@@H](C)CO)C[C@@H]2C)cc1 as the molecule, how does the relative growth read?
Answer: inactive: 1.02

Question: With O=C(C[C@H]1C=C[C@H](NS(=O)(=O)c2ccccc2)[C@@H](CO)O1)NCc1ccncn1 as the molecule, how does the relative growth read?
Answer: inactive: 0.999

Question: For C[C@@H]1CN([C@H](C)CO)C(=O)c2cc(C3=CCCC3)cnc2O[C@H]1CN(C)C(=O)Nc1ccc(C(F)(F)F)cc1, which relative growth is on record?
Answer: inactive: 0.979

Question: How did the relative growth turn out when COC(=O)Cc1cccn1C was run?
Answer: inactive: 0.978

Question: C[C@@H]1CN([C@H](C)CO)C(=O)c2cc(NC(=O)C3CC3)ccc2O[C@@H]1CN(C)Cc1ccc(C(=O)O)cc1 was tested. Which relative growth did it give?
Answer: inactive: 1.01

Question: With COc1ccc(S(=O)(=O)N(C)C[C@H]2Oc3c(NC(=O)Nc4cccc5ccccc45)cccc3C(=O)N([C@H](C)CO)C[C@H]2C)cc1 as the molecule, how does the relative growth read?
Answer: inactive: 1.04

Question: Which relative growth does the source give for C[C@@H]1CN([C@@H](C)CO)C(=O)Cc2cc(NC(=O)CCCN(C)C)ccc2O[C@@H]1CN(C)S(=O)(=O)c1ccc(Cl)cc1 here?
Answer: inactive: 0.999

Question: How did the relative growth turn out when CN(C)CCCNC(=O)C[C@@H]1CC[C@@H]2[C@H](COC[C@@H](O)CN2S(=O)(=O)c2ccc(F)cc2)O1 was run?
Answer: inactive: 1.04

Question: CN1CCN(C(=O)C[C@@H]2CC[C@H]3[C@@H](COc4ccc(NC(=O)C5CCCCC5)cc4C(=O)N3C)O2)CC1 was tested. Which relative growth did it give?
Answer: inactive: 0.992

Question: CCC(=O)NC[C@H](Cc1ccc(OCCc2nc(-c3ccccc3)oc2C)cc1)N/C(C)=C\C(=O)c1ccc(C(F)(F)F)cc1 was tested. Which relative growth did it give?
Answer: inactive: 1.08

Question: Which relative growth does the source give for C[C@H]1CN([C@@H](C)CO)C(=O)c2c(c3ccccc3n2C)-c2ccccc2CO[C@H]1CN(C)C(=O)Nc1ccc(-c2ccccc2)cc1 here?
Answer: inactive: 1.03

Question: For Cc1ccc(S(=O)(=O)N2C[C@@H](O)COC[C@H]3O[C@H](CC(=O)NCc4ccc(C)c(C)c4)CC[C@@H]32)cc1, which relative growth is on record?
Answer: inactive: 0.99

Question: With NCc1n[nH]c(=O)c2ccccc12 as the molecule, how does the relative growth read?
Answer: inactive: 0.967

Question: Which relative growth does the source give for COc1cccc(S(=O)(=O)N[C@H]2C=C[C@H](CC(=O)NC3CCC3)O[C@H]2CO)c1 here?
Answer: inactive: 0.988

Question: For COc1ccc(NC(=O)N(C)C[C@@H]2OCCCC[C@H](C)Oc3ccc(NC(=O)Nc4cccc5ccccc45)cc3C(=O)N([C@H](C)CO)C[C@@H]2C)cc1, which relative growth is on record?
Answer: inactive: 1.02

Question: For C[C@H](CO)N1C[C@H](C)[C@H](CN(C)C(=O)Nc2ccnc(N3CCOCC3)c2)OCc2cn(nn2)CCCC1=O, which relative growth is on record?
Answer: inactive: 0.98

Question: With C[C@H](CO)N1C[C@H](C)[C@@H](CN(C)S(=O)(=O)c2cccs2)OCCCC[C@H](C)Oc2ccc(NC(=O)C3CCCCC3)cc2C1=O as the molecule, how does the relative growth read?
Answer: inactive: 0.997

Question: Which relative growth does the source give for Cn1c(=O)c2c(ncn2CCNC2=NCCC2)n(C)c1=O here?
Answer: inactive: 0.984

Question: How did the relative growth turn out when COC(=O)c1c2oc(c1C(=O)OC)C(=O)N[C@@H](Cc1ccccc1)Cn1cc(nn1)[C@@H](Cc1ccccc1)NC(=O)N[C@H](CO)CC2 was run?
Answer: inactive: 0.946

Question: For O=c1ccc(=O)n(CCO)[nH]1, which relative growth is on record?
Answer: inactive: 0.947

Question: With CO[C@H]1CN(C)C(=O)c2ccc(NC(=O)C3CC3)cc2OC[C@@H](C)N(C(=O)C2CCOCC2)C[C@@H]1C as the molecule, how does the relative growth read?
Answer: inactive: 1.01

Question: With COc1ccc(NC(=O)Nc2ccc3c(c2)C(=O)N([C@H](C)CO)C[C@@H](C)[C@H](CN(C)Cc2ccc(Cl)c(Cl)c2)O3)cc1 as the molecule, how does the relative growth read?
Answer: inactive: 1

Question: With O=C1CNC(=O)CN1 as the molecule, how does the relative growth read?
Answer: inactive: 1.02

Question: Which relative growth does the source give for C[C@@H]1CN([C@@H](C)CO)C(=O)Cc2cc(NC(=O)Cn3cnnn3)ccc2O[C@@H]1CN(C)CC1CC1 here?
Answer: inactive: 0.99

Question: Which relative growth does the source give for C[C@@H]1CN([C@@H](C)CO)C(=O)c2c(c3ccccc3n2C)-c2ccccc2CO[C@H]1CN(C)Cc1cccc(C(F)(F)F)c1 here?
Answer: inactive: 1.06

Question: Which relative growth does the source give for C=CCC[C@@H](Cc1ccc(F)cc1)C(=O)OC[C@@H]1CCCN1C(=O)[C@@H](CC=C)CC(=O)N(CCO)Cc1ccccc1 here?
Answer: inactive: 1.07

Question: C[C@H]1CN([C@@H](C)CO)C(=O)c2cc(NS(=O)(=O)c3ccc(F)cc3)ccc2O[C@H]1CN(C)C(=O)Nc1ccc(C(F)(F)F)cc1 was tested. Which relative growth did it give?
Answer: inactive: 1

Question: CCC(=O)Nc1ccc2c(c1)OC[C@H](C)N(C(=O)CN1CCOCC1)C[C@H](C)[C@H](OC)CN(C)C2=O was tested. Which relative growth did it give?
Answer: inactive: 1.01

Question: With CC(C)NC(=O)N(C)C[C@H]1Oc2ccc(NC(=O)Cn3cnnn3)cc2CC(=O)N([C@@H](C)CO)C[C@@H]1C as the molecule, how does the relative growth read?
Answer: inactive: 0.997

Question: For C[C@@H]1CCCCO[C@H](CN(C)C(=O)C2CCCCC2)[C@H](C)CN([C@@H](C)CO)C(=O)c2cc(NC(=O)Cc3ccccc3)ccc2O1, which relative growth is on record?
Answer: inactive: 0.992

Question: For C[C@H](CO)N1C[C@H](C)[C@@H](CN(C)Cc2ccncc2)Oc2ccc(NC(=O)CCCN(C)C)cc2C1=O, which relative growth is on record?
Answer: inactive: 0.982

Question: Which relative growth does the source give for Cc1noc(C)c1NC(=O)Nc1ccc2c(c1)C(=O)N([C@H](C)CO)C[C@@H](C)[C@@H](CN(C)CC1CCCCC1)OCCCC[C@@H](C)O2 here?
Answer: inactive: 0.972

Question: How did the relative growth turn out when Cc1noc(C)c1S(=O)(=O)Nc1ccc2c(c1)C(=O)N([C@@H](C)CO)C[C@H](C)[C@@H](CN(C)Cc1ccc(Cl)c(Cl)c1)OCCCC[C@H](C)O2 was run?
Answer: inactive: 0.995

Question: How did the relative growth turn out when CON=C(C(=O)NC1C(=O)N2C(C(=O)[O-])=C(COC(C)=O)CSC12)c1csc(N)n1.[Na+] (configuration not stated) was run?
Answer: active: 0.0428

Question: Which relative growth does the source give for O=C(C[C@H]1C[C@H]2c3cc(NS(=O)(=O)c4ccc(F)cc4)ccc3O[C@H]2[C@@H](CO)O1)NCc1ccccn1 here?
Answer: inactive: 1.03

Question: CC(=O)O[C@H]1CC[C@]2(C)[C@H]3CC[C@]4(C)C(=CC(=O)O[C@H]4c4ccoc4)[C@]3(C)[C@H](OC(C)=O)C[C@H]2C1(C)C was tested. Which relative growth did it give?
Answer: inactive: 0.992

Question: Which relative growth does the source give for C[C@@H]1CN([C@@H](C)CO)C(=O)c2cccc(NC(=O)C3CCOCC3)c2O[C@@H]1CN(C)S(=O)(=O)c1ccccc1 here?
Answer: inactive: 0.967

Question: Which relative growth does the source give for C[C@@H]1CN([C@@H](C)CO)C(=O)c2cc(NS(=O)(=O)c3cn(C)cn3)ccc2O[C@@H]1CN(C)Cc1ccc(C(=O)Nc2ccccc2N)cc1 here?
Answer: inactive: 0.946

Question: How did the relative growth turn out when CNC[C@H]1Oc2ccc(NC(=O)CCN3CCOCC3)cc2CC(=O)N([C@@H](C)CO)C[C@H]1C was run?
Answer: inactive: 0.976

Question: COc1ccc2c3c([nH]c2c1)[C@H](CO)N(C[C@]13CN(Cc2ccccc2F)C1)S(=O)(=O)c1cn(cn1)C was tested. Which relative growth did it give?
Answer: inactive: 0.979

Question: Which relative growth does the source give for Cc1noc(C)c1S(=O)(=O)N(C)C[C@@H]1Oc2ccc(NS(=O)(=O)c3ccccc3)cc2CC(=O)N([C@H](C)CO)C[C@@H]1C here?
Answer: inactive: 1.02

Question: How did the relative growth turn out when COc1ccc(CN(C)C[C@H]2OCCCC[C@@H](C)Oc3ccc(NS(=O)(=O)c4ccccc4)cc3C(=O)N([C@H](C)CO)C[C@H]2C)cc1 was run?
Answer: inactive: 0.977

Question: How did the relative growth turn out when Cc1cccc(NC(=O)Nc2ccc3c(c2)C(=O)N(C)[C@@H]2CC[C@@H](CC(=O)NCc4ccccc4Cl)O[C@H]2CO3)c1 was run?
Answer: inactive: 1.01

Question: C[C@H]1CN([C@@H](C)CO)C(=O)c2cc(NC(=O)Nc3ccc4c(c3)OCO4)ccc2O[C@H]1CN(C)S(=O)(=O)c1cn(C)cn1 was tested. Which relative growth did it give?
Answer: inactive: 0.985

Question: For Cc1ccccc1S(=O)(=O)N1C[C@H](O)COC[C@H]2O[C@@H](CC(=O)NCCc3ccccc3)CC[C@@H]21, which relative growth is on record?
Answer: inactive: 0.987

Question: For COc1ccc2c3c(n(c2c1)C)[C@@H](CO)N(CC1CCOCC1)C[C@]13CN(C1)C(=O)Cc1cccnc1, which relative growth is on record?
Answer: inactive: 0.992

Question: CC(C)NC(=O)Nc1ccc2c(c1)C(=O)N([C@@H](C)CO)C[C@@H](C)[C@@H](CN(C)Cc1ccc(C(F)(F)F)cc1)OCCCC[C@@H](C)O2 was tested. Which relative growth did it give?
Answer: inactive: 0.992

Question: With O=C(C[C@@H]1C[C@@H]2c3cc(NC(=O)Cc4ccncc4)ccc3O[C@@H]2[C@@H](CO)O1)NCc1ccc2c(c1)OCO2 as the molecule, how does the relative growth read?
Answer: inactive: 1.03

Question: Which relative growth does the source give for C[C@H]1CN([C@@H](C)CO)C(=O)c2cc(C#CC3(O)CCCC3)cnc2O[C@@H]1CN(C)S(C)(=O)=O here?
Answer: inactive: 0.977

Question: Which relative growth does the source give for C=CCC[C@H](Cc1ccc(F)cc1)C(=O)OC[C@@H](Cc1c[nH]c2ccccc12)NC(=O)[C@@H](CC=C)CC(=O)N[C@@H](CO)Cc1ccccc1 here?
Answer: inactive: 1.02

Question: Which relative growth does the source give for O=C1O[C@H](c2ccccc2)[C@H](c2ccccc2)N2[C@H]1[C@@H](C(=O)N1CCCCCCC1)[C@]1(C(=O)Nc3ccccc31)[C@H]2c1ccc(O)cc1 here?
Answer: inactive: 1.03

Question: For Nc1ncnc2nc[nH]c12, which relative growth is on record?
Answer: inactive: 0.971

Question: For COc1ccc(NC(=O)N(C)C[C@H]2Oc3ccc(NC(=O)CCCCCC(=O)Nc4ccccc4N)cc3CC(=O)N([C@H](C)CO)C[C@@H]2C)cc1, which relative growth is on record?
Answer: inactive: 1.01

Question: Which relative growth does the source give for C[C@@H]1CN([C@@H](C)CO)C(=O)c2cc(C#Cc3ccncc3)cnc2O[C@@H]1CN(C)S(=O)(=O)c1ccccc1F here?
Answer: inactive: 0.976

Question: With C[n+]1cccc(C(=O)O)c1 as the molecule, how does the relative growth read?
Answer: inactive: 0.979

Question: For Cn1ccnc1CO, which relative growth is on record?
Answer: inactive: 1

Question: How did the relative growth turn out when COCC(=O)N(C)C[C@H]1Oc2cc(C#CCC3CCCC3)ccc2S(=O)(=O)N([C@H](C)CO)C[C@H]1C was run?
Answer: inactive: 0.964
